Measured values taken from the BET-seq Pho4 binding data (Le et al. 2018).
The other results are listed elsewhere or left out. These are noisy estimates, calculated here from bound and input reads.

What follows are sequences tested against T1, Pho4 (S. cerevisiae) (UniProt P07270) (assay: relative binding free energy (BET-seq); higher = weaker binding). Conditions: reference: library average.
T1 sequence: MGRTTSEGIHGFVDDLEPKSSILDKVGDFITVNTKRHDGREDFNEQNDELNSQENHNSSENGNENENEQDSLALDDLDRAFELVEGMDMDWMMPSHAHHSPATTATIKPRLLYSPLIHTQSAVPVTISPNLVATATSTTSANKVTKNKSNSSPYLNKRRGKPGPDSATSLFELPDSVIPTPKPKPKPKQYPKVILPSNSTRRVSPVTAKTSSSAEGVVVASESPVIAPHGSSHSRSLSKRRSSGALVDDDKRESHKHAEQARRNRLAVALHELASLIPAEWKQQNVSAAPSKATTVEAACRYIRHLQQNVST

Sequence	relative binding free energy
AGGGTCACGTGATTTT	0.38 kcal/mol
ACGCTCACGTGTGGGT	0.28 kcal/mol
TTTGACACGTGATATG	0.1 kcal/mol
TGAATCACGTGGGAAA	0.21 kcal/mol
GTTTGCACGTGGTCAG	-0.16 kcal/mol
ACTGTCACGTGGTGAG	0.07 kcal/mol
AAGTGCACGTGTAGAG	0.02 kcal/mol
TGGGCCACGTGGGTCA	-0.25 kcal/mol
CTGATCACGTGTGTTA	0.09 kcal/mol
TTGTACACGTGTGGAA	0.13 kcal/mol
ATTTGCACGTGGGTAA	-0.08 kcal/mol
TTTGGCACGTGACTAG	-0.11 kcal/mol
ATAGGCACGTGTTCGG	-0.19 kcal/mol
AGTTCCACGTGTGGTT	0.07 kcal/mol
TAGTGCACGTGGGTTA	-0.08 kcal/mol
TTAGTCACGTGGGAAG	0.07 kcal/mol
AATGGCACGTGTGGTT	0.06 kcal/mol
TGTCACACGTGTGGAG	0.23 kcal/mol
GAGTTCACGTGGACTG	0.36 kcal/mol
TGTGACACGTGGTGGA	0.05 kcal/mol
ATGGACACGTGTGACG	0.1 kcal/mol

Sequence	relative binding free energy
GGGTTCACGTGTAGGG	0.29 kcal/mol
CGTTTCACGTGAGATT	0.4 kcal/mol
ATGTGCACGTGGTTCG	-0.08 kcal/mol
TGCGGCACGTGTTTGT	-0.06 kcal/mol
GTTCTCACGTGCGGGG	0.12 kcal/mol
TGCTACACGTGTGGTA	0.07 kcal/mol
GGGTCCACGTGTGATG	0.14 kcal/mol
GTGGGCACGTGGCGGG	-0.05 kcal/mol
CGGTTCACGTGTGGGA	0.34 kcal/mol
TGATCCACGTGTATGT	-0.11 kcal/mol
TTGGACACGTGTTAGG	0.12 kcal/mol
TTGGGCACGTGGGACT	-0.12 kcal/mol
AGGGGCACGTGGGATT	-0.11 kcal/mol
GAGTGCACGTGGTCCG	0 kcal/mol
TATATCACGTGGGTTA	-0.15 kcal/mol
TGTGGCACGTGTTATC	-0.03 kcal/mol
ATGGACACGTGTCGGG	-0.03 kcal/mol
CAATGCACGTGAGTGT	0.14 kcal/mol
ATAGCCACGTGCGTGT	-0.11 kcal/mol
ATTGGCACGTGGTCTA	-0.31 kcal/mol
GTTGGCACGTGTGTTG	0.1 kcal/mol

Sequence	relative binding free energy
AGGTGCACGTGTTCGG	0 kcal/mol
TCTTGCACGTGAGGGT	0.19 kcal/mol
TGGTACACGTGGATTA	0.1 kcal/mol
TGTTTCACGTGCCAGG	0.2 kcal/mol
AAGTTCACGTGGGTGG	0.1 kcal/mol
CGGGACACGTGTGTGC	-0.02 kcal/mol
AAATGCACGTGAAAGG	0.28 kcal/mol
AGTAGCACGTGGTATG	-0.04 kcal/mol
TGCAGCACGTGGGCGT	-0.32 kcal/mol
TAGACCACGTGATGGG	0.07 kcal/mol
ATTTACACGTGGCGGG	0.06 kcal/mol
GTGTTCACGTGGAGTC	0.24 kcal/mol
TTGTGCACGTGAGGCC	0.1 kcal/mol
TGTGGCACGTGCACTG	-0.08 kcal/mol
TGGGGCACGTGCTTCG	-0.21 kcal/mol
ATTTGCACGTGTATTC	0.06 kcal/mol
TGATGCACGTGGTTGA	-0.03 kcal/mol
AGGGGCACGTGACTAT	0.03 kcal/mol
ATGTGCACGTGAATTT	0.33 kcal/mol
AATTTCACGTGGTGTG	0.11 kcal/mol
GTGTACACGTGTTATA	0.16 kcal/mol
